Experimental findings from PubChem BioAssay AID1347073 (National Center for Advancing Translational Sciences (NCATS), 2019) are described below.

Among all 45,000 compounds or so, about 200 (0.44%) were called active. Not shown: some 7% with an inconclusive outcome. Calls come from the whole dose curve; as a rule, active = well fitted activation curve with a large enough effect; inconclusive = small, poorly fitted or top-dose-only effect; inactive = no such curve, though single readings can be large or run the other way. The list shows a part of the results.

The nature of this experiment: qHTS of TDP-43 Inhibitors: NCGC Sytravon Library Screen. Note: 0% is about no effect; nearly all actives have a fitted effect of over 55% in size. The settings on record: yeast TDP-43 toxicity rescue, BacTiter-Glo growth, 24 h; series mostly up to 46.1 µM; growth rescue (activation): at the top concentration. The procedure, abridged: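 TDP-43-expressing yeast, pregrown in raffinose, seeded at OD600 0.02 in galactose medium with compound for 24 hr at 30 deg C. Growth read by BacTiter-Glo luminescence, so rescue of toxicity appears as activation.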
As to `COc1ccccc1NC(=O)C1CCN(C(=O)C2CC(=O)N(c3ccc(C)cc3)C2)CC1` (stereo not drawn), the “growth rescue (activation)” value was inactive: -2.84%. In the case of `O=C(CSc1nnnn1C1CCCC1)N1CCOCC1` it was inactive: -9.11%; in that of `Cc1ccc(NC(=O)Cn2nc(C(=O)O)c3ccccc3c2=O)cc1S(=O)(=O)N1CCCCC1`, inactive: 8.73%; in that of `O=C(C1CCN(Cc2ccc(F)cc2)CC1)N(CCc1ccccc1)Cc1ccccc1`, inactive: -12.8%.

Consider `Nc1ccc(N2CCCCC2)c(S(=O)(=O)Nc2ccccc2Cl)c1`, for which the “growth rescue (activation)” value was inactive: -11.5%.

Consider `CCOC(=O)CN1C(=O)c2ccccc2Sc2ncccc21`, for which the “growth rescue (activation)” value was inactive: 11.9%.

For the compound `CC(C)(C)c1nnc(NC(=O)Cc2ccccc2[N+](=O)[O-])s1`, the “growth rescue (activation)” value is inactive: -15.4%. In the case of `O=[N+]([O-])c1cc(/C=N/N2CCCCC2)ccc1Cl` it was inactive: 5.13%; in that of `Cc1ccccc1N(CC(=O)NC1CCCCC1)C(=O)c1csnn1`, inactive: 10.7%. The same measure for `CCOC(=O)c1sc(C)c2c(=O)n(CCCN3CCOCC3)cnc12`: inactive: 1.59%; for `CCOC(=O)c1c(C)[nH]c(C)c1C(=O)CSc1nc(N)cc(N)n1`: inactive: 9.5%. The same measure for `CCOc1ccccc1N(C(=O)Nc1ccc(Cl)cc1)C1=NCCS1`: inactive: -3.82%.

For the compound `COc1ccc(C(=O)N(CCc2ccccc2)Cc2cccs2)c(OC)c1`, the “growth rescue (activation)” value is inactive: 13%. On to `O=C(NC1CCCCC1)C(c1ccccc1)N(C(=O)c1csnn1)C1CC1` (stereo not drawn), for which the “growth rescue (activation)” value is inactive: 1.62%. In the case of `CCNC(=S)Nc1cc(OCC)c(NC(=O)c2ccco2)cc1OCC` it was inactive: 21%; in that of `CS(=O)(=O)N(CC(=O)Nc1ccccc1)c1cccc(Cl)c1Cl`, inactive: -2.46%; in that of `Cc1ccccc1-c1nnc(SCC(=O)N2CCCC2)o1`, inactive: 10.3%. Consider `COC(=O)CSCC(=O)Nc1cc2c(cc1C(C)=O)OCO2`, for which the “growth rescue (activation)” value was inactive: -3.69%. For `CCOC(=O)Cc1csc(NC(=O)Cn2c(=O)oc3ccccc32)n1`, the “growth rescue (activation)” value was inactive: -48.3%. With `Cc1cccc(OCC(=O)NC2CCCC2)c1`, the “growth rescue (activation)” value is inactive: -1.08%. The same measure for `N#Cc1ccccc1S(=O)(=O)N1CCN(c2cnccn2)CC1`: inactive: 0.84%. In the case of `COc1cc(-c2noc(CCCC(=O)Nc3ccc(C(N)=O)cc3)n2)cc(OC)c1OC` it was inactive: 14.7%; in that of `COc1ccc(C(C(=O)NC2CCCCC2)N(C(=O)c2ccccn2)c2cccnc2)c(OC)c1` (stereo not drawn), inactive: 8.48%; in that of `COc1ccc(CCNC(=O)c2coc3ccccc3c2=O)cc1OC`, inactive: 10.7%.

`COc1ccc(C(=S)N2CCC(C(N)=O)CC2)cc1Br`: the “growth rescue (activation)” value is inactive: -10%. As to `CCN(Cc1ccccc1)C(=O)C1CCN(C/C(C)=C/c2ccccc2)CC1`, the “growth rescue (activation)” value is inactive: 7.19%.

For `O=C(Nc1nc(-c2ccc(S(=O)(=O)N3CCOCC3)cc2)cs1)c1ccccc1`, the “growth rescue (activation)” value is inactive: -12.7%. `COc1ccc(CNc2nc(-c3ccccc3)nn2C(=O)c2ccc([N+](=O)[O-])cc2)cc1`: the “growth rescue (activation)” value was inactive: 24.2%. In the case of `COc1ccc(Br)cc1CNC(=O)C(C)n1nc(C)n2c(cc3occc32)c1=O` (stereo not drawn) it was inactive: 10.3%; in that of `Cc1ccc(C)c(S(=O)(=O)N(C(=O)c2ccncc2)c2ccc(OC(=O)c3ccncc3)cc2)c1`, inactive: 6.31%; in that of `CN1CCCN=C1/C=C/c1cccs1`, inactive: -34.1%.

As for `CSCCC(NC(N)=O)C(=O)Nc1ccc(F)c(Cl)c1` (stereo not drawn), the “growth rescue (activation)” value was inactive: 4.23%. As for `CCNC(=O)C(C)NC(=O)C1=NN(c2ccccc2)C(=O)CC1` (stereo not drawn), the “growth rescue (activation)” value is inactive: -16.8%. For `Nc1nc(-c2ccco2)nn1C(=O)c1ccc([N+](=O)[O-])cc1`, the “growth rescue (activation)” value was inactive: -3.75%.

Take `O=C1CCCN1CCCNc1nc(NCc2ccccc2)nc2ccsc12`: the “growth rescue (activation)” value is inactive: 5.82%. Take `O=C(O)c1ccc(-n2cccn2)nc1`: the “growth rescue (activation)” value was inactive: 8.08%.

Regarding `Cc1cc(S(=O)(=O)N2CCN(CC(=O)N(C)Cc3ccccc3)CC2)ccc1Br`, the “growth rescue (activation)” value was inactive: 7.6%. In the case of `Cc1cccc(CN2CCN(Cc3cccc(-n4cccn4)c3)CC2CCO)n1` (stereo not drawn) it was inactive: -6.09%.

Consider `O=C(COC(=O)COc1cc(Cl)c(Cl)cc1Cl)NC1CC1`, for which the “growth rescue (activation)” value was inactive: -11.1%. The same measure for `Cc1cc2c(SCC(=O)Nc3cccc(O)c3)ncnc2s1`: inactive: 2.85%; for `CCCNC(=O)C1(C)CCCN(C(=O)c2cccc(OC(C)=O)c2C)C1` (stereo not drawn): inactive: 14.5%; for `Cc1ccc(S(=O)(=O)NCCCC(=O)O)cc1`: inactive: 8.21%. In the case of `CC(C)CNC(=O)C(=O)NCc1ccccc1` it was inactive: -15.6%. In the case of `Cc1cccc(N2CCN(c3ccc(C(N)=O)cc3[N+](=O)[O-])CC2)c1C` it was inactive: 12.1%.

For `CC(C)CC(C(=O)Nc1ccccc1)N1C(=O)C2C3C=CC(C3)C2C1=O` (stereo not drawn), the “growth rescue (activation)” value is inactive: -0.608%. In the case of `Cc1cccc(NC(=O)C2CCCN(S(=O)(=O)c3cccc4nonc34)C2)c1` (stereo not drawn) it was inactive: 4.5%; in that of `Cc1ccc(Nc2nnc(SC(C)C(=O)Nc3c(C)n(C)n(-c4ccccc4)c3=O)s2)cc1` (stereo not drawn), inactive: 5.55%.

In the case of `CN(c1ccc(OCC(=O)N2CCOCC2)cc1)S(=O)(=O)c1ccc(F)cc1`, the “growth rescue (activation)” value was inactive: 10%. The same measure for `CNc1cccc(-c2cccc(O)c2)n1`: inactive: -11.8%; for `O=C(NCc1ccc2c(c1)OCO2)c1nc(S(=O)(=O)Cc2ccccc2)ncc1Cl`: inactive: 9.46%; for `O=C(COC(=O)/C=C/c1cccc(C(F)(F)F)c1)Nc1cccc2ccccc12`: inactive: 7.24%. `COc1ccc(-n2[nH]c(C)cc2=O)cc1`: the “growth rescue (activation)” value is inactive: -0.234%.

For `COc1ccc(/C=C(\C#N)C(=O)NCc2ccccc2)cc1`, the “growth rescue (activation)” value is inactive: 19.9%. The same measure for `COc1cc(C(=O)Nc2nnc(Cc3ccccc3)s2)cc(OC)c1OC`: inactive: 6.42%; for `Cc1cnc(C)c(N2CCN(Cc3nc(-c4cccc(F)c4F)oc3C)CC2)n1`: inactive: -6.11%; for `O=C(O)CCN1C(=O)c2ccc(NC(=O)CSc3ccccc3)cc2C1=O`: inactive: 8.77%.

For `Cn1ccnc1SCC(=O)Nc1cc(S(=O)(=O)N2CCOCC2)ccc1Cl`, the “growth rescue (activation)” value is inactive: 7.59%. `Cc1ccc(NC(=O)c2cccc(N3C(=O)CCC3=O)c2)nc1`: the “growth rescue (activation)” value is inactive: 10.9%. For `O=C(CSc1nnc(COc2ccccc2Cl)o1)NC(=O)NCc1ccco1`, the “growth rescue (activation)” value is inactive: 24.8%. The same measure for `CCOc1cc(/C=C/c2cc(C(=O)O)c3ccccc3n2)ccc1O`: inactive: 6.93%; for `CC(C)C(=O)Nc1ccc(NC(=O)c2cccc3c(Br)cccc23)cc1`: inactive: -7.52%. As for `CCOC(=O)c1c(-c2ccc(-c3ccccc3)cc2)csc1NC(=O)c1cccc(N2C(=O)CCC2=O)c1`, the “growth rescue (activation)” value is inactive: 4.72%. The same measure for `CCN(CC)c1ccc(O)c(C=Nc2ccc(C)c(C)c2)c1`: inactive: -4.56%; for `COc1cc(S(=O)(=O)NC(Cc2c[nH]c3ccccc23)C(=O)O)ccc1NC(C)=O` (stereo not drawn): inactive: 12.7%. The same measure for `CCOc1ccccc1NC(=S)N1CCN(c2ccccc2F)CC1`: inactive: 19.1%; for `N#CC(C#N)=Cc1cc2ccccc2nc1N1CCOCC1`: inactive: -0.186%; for `Cc1noc(NS(=O)(=O)c2ccc(NS(=O)(=O)c3ccc(Cl)cc3)cc2)c1C`: inactive: 7.05%. In the case of `CCNc1nc(Oc2ccc(=O)n(-c3ccccc3)n2)nc(N(C)C)n1` it was inactive: 3.45%; in that of `O=C(Nc1ccc(S(=O)(=O)NCc2cccnc2)cc1)c1ccccc1Cl`, inactive: 20.3%; in that of `O=C(CN1CCOCC1)Nc1c2c(nc3ccccc13)N(Cc1ccccc1)CC2`, inactive: -14.2%. As for `CCOC(=O)C1(C)CCN1C(=O)c1ccc(SC(F)(F)F)cc1` (stereo not drawn), the “growth rescue (activation)” value is inactive: 24.1%. As to `Cn1c(CC(=O)Nc2ccccc2Cl)nnc1SCC(=O)NC1=NCCS1`, the “growth rescue (activation)” value was inactive: 12.1%. In the case of `COc1ccc(NC(=S)Nc2ccc(OC)cc2OC)c(OC)c1` it was inactive: 2.79%; in that of `CC(C)CCNC(=O)c1cc2c(=O)n3ccccc3nc2s1`, inactive: 15.6%; in that of `COc1ccc(C2C3=C(N=C4SCC(=O)N42)c2ccccc2CC3)cc1` (stereo not drawn), inactive: 19.4%. With `OC(COc1ccc(F)cc1)CN1CCN(CC(O)COc2ccc(F)cc2)CC1` (stereo not drawn), the “growth rescue (activation)” value is inactive: 8.29%. The same measure for `O=C(NC(c1ccc(Cl)cc1)c1ccsc1)C1CCN(Cc2cccc(Cl)c2)CC1` (stereo not drawn): inactive: 9.35%; for `COc1ccc(N2CCN(C(=O)C3(C)CC3(Cl)Cl)CC2)cc1` (stereo not drawn): inactive: 23.5%; for `O=c1oc2ccccc2c(N2CCCC2)c1[N+](=O)[O-]`: inactive: -10.2%. The same measure for `CC(C)(C)NC(=O)CN(C(=O)C(=O)Nc1ccc2c(c1)OCCO2)C1CC1`: inactive: 5.77%; for `CC(C)CC(=O)NC(=S)Nc1ccc(NC(=O)c2ccco2)cc1`: inactive: 14.7%; for `COc1ccc(CN2C(=O)c3cccc4cccc2c34)cc1F`: inactive: 23.8%. In the case of `COc1ccc(OC)c(NC(=S)NCc2ccc(S(N)(=O)=O)cc2)c1` it was inactive: -0.108%; in that of `Cc1ccc(S(=O)(=O)N2CCOCC2)cc1C(=O)Nc1ccc2c(c1)CCC2`, inactive: 7.02%; in that of `COC(=O)Cc1csc(NC(=O)CSc2nncn2C)n1`, inactive: -10.3%.

As to `CCn1c(COc2ccccc2)nnc1SCC(=O)Nc1ccc(N2CCOCC2)cc1`, the “growth rescue (activation)” value was inactive: -0.0389%. For `COc1ccc(C(=O)N2CCNC(=O)C2CC(=O)Nc2cc(Cl)ccc2OC)cc1` (stereo not drawn), the “growth rescue (activation)” value is inactive: -6.15%. The same measure for `Cc1ccc(C2C3=C(CC(C)(C)CC3=O)NC3=C2C(=O)c2ccccc23)cc1` (stereo not drawn): inactive: 6.73%; for `CCCC(C)c1nnc(NC(=O)COc2ccc3c(c2)OCO3)s1` (stereo not drawn): inactive: -4.73%.

For `CC(=O)c1ccc(-c2cnc3c(NC=O)cc(-c4ccc(N5CCN(C)CC5)cc4)cn23)cc1`, the “growth rescue (activation)” value was inactive: 11.6%. With `COc1ccc(C2c3ccc(O)cc3Oc3ncn(CC(C)C)c(=N)c32)cc1` (stereo not drawn), the “growth rescue (activation)” value was inactive: 0.543%. The same measure for `Cc1c(C(=O)Nc2ccc(-c3nc4cc(Cl)ccc4o3)cc2)oc2ccccc12`: inactive: 1.99%; for `Cc1oc(-c2cccc(C(F)(F)F)c2)nc1CN1CCC[C@H]1CO`: inactive: 2.05%. The same measure for `COc1cccc(-c2cnc(C(O)c3ccc(Cl)cc3)[nH]2)c1` (stereo not drawn): inactive: 2.84%; for `COc1ccc(NC(=O)Nc2cc(C)ccc2F)cc1OC`: inactive: 3.07%; for `O=S(=O)(NC1CCCCC1Nc1ccccc1)c1ccccc1` (stereo not drawn): inactive: 12.3%.

For the compound `Nc1nonc1-n1nnc(C(=O)N/N=C/c2ccccc2)c1CN1CCc2ccccc21`, the “growth rescue (activation)” value was inactive: -2.66%. In the case of `CCOC(=O)c1ccc[n+](C(C)C(=O)c2ccc(-c3ccccc3)cc2)c1` (stereo not drawn) it was inactive: 20.4%; in that of `O=C(CCCN1C(=O)/C(=C/c2ccco2)SC1=S)Nc1ccccc1`, inactive: 10.8%.

With `Cc1c(/C(O)=C2/C(=O)C(=O)N(CCN(C)C)C2c2ccc(C(C)C)cc2)cnn1-c1ccccc1` (stereo not drawn), the “growth rescue (activation)” value is inactive: 14.5%. In the case of `CCC(=O)Oc1ccc(C(=O)Nc2cccc(C(=O)NC(C)(C)C)c2)cc1` it was inactive: 0.607%; in that of `CCOc1ccc(-n2c(SCc3ccc([N+](=O)[O-])cc3)nnc2-c2ccccc2)cc1`, inactive: 18.8%; in that of `CCOc1ccc(-c2ncncc2-c2ccccc2OC)c(O)c1`, inactive: 17.6%. In the case of `CSc1nc(N(C)C)nc(N(C#N)CCOC(C)=O)n1` it was inactive: 19.9%; in that of `Cc1ccc(NC(=O)C(=O)NCc2ccccn2)cc1`, inactive: 3.64%. In the case of `COc1cccc(CN(CC(=O)NCc2ccccc2)C(=O)c2csnn2)c1` it was inactive: 6.02%; in that of `CCOC(=O)CC(NS(=O)(=O)c1ccc2[nH]c(=O)sc2c1)c1ccc(C)cc1` (stereo not drawn), inactive: -13.4%; in that of `CC(C)C(=O)Nc1ccc2c(c1)nc(CCN1CCN(c3ccccn3)CC1)n2C`, inactive: 12.6%.
